Patent US20250066451A1 (SWEDISH ORPHAN BIOVITRUM AB PUBL, published 2025)
Substitutions are numbered along the chain they refer to.

T1: human IL-1R-I (human, UniProt P14778 18-332, limits assumed)
T1 construct: bought recombinant protein; also called hIL-1R-I; hIL-1RI
T1 sequence (looked up): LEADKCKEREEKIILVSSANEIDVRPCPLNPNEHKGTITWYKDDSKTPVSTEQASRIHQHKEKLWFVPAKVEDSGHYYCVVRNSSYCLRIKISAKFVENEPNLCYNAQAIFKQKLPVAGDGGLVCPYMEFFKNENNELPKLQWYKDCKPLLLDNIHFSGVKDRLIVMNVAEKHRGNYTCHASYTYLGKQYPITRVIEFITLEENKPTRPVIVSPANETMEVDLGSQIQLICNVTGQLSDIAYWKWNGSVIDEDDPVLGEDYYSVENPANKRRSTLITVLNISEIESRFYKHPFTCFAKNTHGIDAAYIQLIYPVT

T2: Human IL-1R-I-Fc (Creative BioMart cat. no. IL1RI-771H) (human, UniProt P14778 18-332, limits assumed)
T2 construct: bought protein; also called hIL-1R-I-Fc; hIL-1RI-Fc
T2 sequence (looked up): T1 sequence (looked up)

B1: Z18800 (His6-Z) (designed binder)
chain: MGSSHHHHHHLQVDAKYAKEIEEIQMEIFRLPNLTRRQYTAFIRKLLDDPSQSSELLSEAKKLNDSQAPKVD
B2: Z18817 (His6-Z) (designed binder)
chain: B1 chain with I21V, L47F
B3: Z18850 (His6-Z) (designed binder)
chain: B1 chain with R30A
B4: Z18853 (His6-Z) (designed binder)
chain: B1 chain with R30Y, L47F
B5: Z18856 (His6-Z) (designed binder)
chain: B1 chain with I21L, R30H
B6: Z18863 (His6-Z) (designed binder)
chain: B1 chain with I21V, I24V, R30G
B7: Z18866 (His6-Z) (designed binder)
chain: B1 chain with R30H, R37K
B8: Z18875 (His6-Z) (designed binder)
chain: B1 chain with E23A, R30H
B9: Z18882 (His6-Z) (designed binder)
chain: B1 chain with I21V, I24V, R30D
B10: Z18888 (His6-Z) (designed binder)
chain: B1 chain with I21V, E23A, R30H, R37K
B11: Z18893 (His6-Z) (designed binder)
chain: B1 chain with R30G, R37K
B12: Z18898 (His6-Z) (designed binder)
chain: B1 chain with I21L, E23A, R30Y, T40V
B13: Z18920 (His6-Z) (designed binder)
chain: B1 chain with I21T
B14: Z19075 (His6-Z) (designed binder)
chain: B1 chain with I21V, E23I, M26Y, R30G, R37K
B15: Z19143 (His6-Z) (designed binder)
chain: B1 chain with I21V, M26L, R30H, R44I
B16: Z19147 (His6-Z) (designed binder)
chain: B1 chain with I21L, R30Y
B17: Z19151 (His6-Z) (designed binder)
chain: B1 chain with I21V, E23D, M26L, R30A
B18: Z19158 (His6-Z) (designed binder)
chain: B1 chain with I21T, R30A
B19: Z19170 (His6-Z) (designed binder)
chain: B1 chain with I21V, R30E
B20: Z19180 (His6-Z) (designed binder)
chain: B1 chain with I21V, E23I, R30H
B21: Z19182 (His6-Z) (designed binder)
chain: B1 chain with I21V, E23A, R30Q
B22: Z15811-ABD (designed binder)
chain: AQHDEALEVDAKYAKEVEEAQMEIFELPNLTRKQYTAFIRKLLDDPSQSSELLSEAKKLNDSQAPKVDYVLAEAKVLANRELDKYGVSDYYKNLINNAKTVEGVKALIDEILAALPYVPG
notes: periplasmic extract, Z-ABD fusion
B23: Z15813-ABD (designed binder)
chain: B22 chain with E18D, Q21Y, F25Y, E26R
B24: Z15862-ABD (designed binder)
chain: B22 chain with E19I, E26A
B25: Z15886-ABD (designed binder)
chain: B22 chain with E19R, E26A
B26: Z15923-ABD (designed binder)
chain: B22 chain with V17T, E18Y, E19Y, E26T, L43F
B27: Z15927-ABD (designed binder)
chain: B22 chain with V17I, E26Y
B28: Z15929-ABD (designed binder)
chain: B22 chain with V17T, E19R, E26A, K33R
B29: Z15932-ABD (designed binder)
chain: B22 chain with E26I
B30: Z15949-ABD (designed binder)
chain: B22 chain with V17T, E19T, E26A
B31: Z15960-ABD (designed binder)
chain: B22 chain with V17T, E19A, E26A
B32: Z15961-ABD (designed binder)
chain: B22 chain with E19T, E26A, L43F
B33: Z15975-ABD (designed binder)
chain: B22 chain with E19T, E26V
B34: Z15978-ABD (designed binder)
chain: B22 chain with E19A, E26N
B35: Z15987-ABD (designed binder)
chain: B22 chain with F25Y, E26Y
B36: Z15996-ABD (designed binder)
chain: B22 chain with E19S, E26N, L43F
B37: Z15997-ABD (designed binder)
chain: B22 chain with V17I, E26Q
B38: Z15999-ABD (designed binder)
chain: B22 chain with E19I, Q21Y, E26H
B39: Z16000-ABD (designed binder)
chain: B22 chain with V17A, E18Y, E19R, E26A
B40: Z16003-ABD (designed binder)
chain: B22 chain with E18Y, E19I, F25Y, E26G, L43F
B41: Z16004-ABD (designed binder)
chain: B22 chain with E19V, E26S
B42: Z16007-ABD (designed binder)
chain: B22 chain with E19I, E26S, L43F
B43: Z16008-ABD (designed binder)
chain: B22 chain with E19V, E26N, K33R
B44: Z16070-ABD (designed binder)
chain: B22 chain with V17I, F25Y, E26R, L43F
B45: Z16072-ABD (designed binder)
chain: B22 chain with E19I
B46: Z16084-ABD (designed binder)
chain: B22 chain with V17I, E19I, L43F
B47: Z16089-ABD (designed binder)
chain: B22 chain with V17I, E19S, Q21Y, M22Y, E26A
B48: Z16092-ABD (designed binder)
chain: B22 chain with V17I, E19Q, F25Y, E26R
B49: Z16093-ABD (designed binder)
chain: B22 chain with V17T, E26A, L43F
B50: Z16097-ABD (designed binder)
chain: B22 chain with V17T, E19R, E26S
B51: Z16102-ABD (designed binder)
chain: B22 chain with E19T, F25Y, E26Q, L43F
B52: Z16106-ABD (designed binder)
chain: B22 chain with E19D, E26K, L43F

Tests used:
human IL-1R-I = biological target: T1, human IL-1R-I; test: SPR; hIL-1R-I immobilized, His6-Z injected
[1] = biological target: T2, Human IL-1R-I-Fc (Creative BioMart cat. …); test: ELISA, hIL-1R-I-Fc titration on Z-ABD

Row | Binder | Kd (human IL-1R-I) [nM] | koff (human IL-1R-I) [s⁻¹] | kon (human IL-1R-I) [M⁻¹ s⁻¹] | EC50 [1] [nM]
1 | B1 | 0.14 | 0.0025 | 1.8e+07 | 
2 | B2 | 0.17 | 0.0048 | 2.8e+07 | 
3 | B3 | 0.17 | 0.0023 | 1.3e+07 | 
4 | B4 | 0.14 | 0.003 | 2.2e+07 | 
5 | B5 | 0.12 | 0.0057 | 4.6e+07 | 
6 | B6 | 0.22 | 0.0048 | 2.2e+07 | 
7 | B7 | 0.12 | 0.0042 | 3.6e+07 | 
8 | B8 | 0.12 | 0.0028 | 2.4e+07 | 
9 | B9 | 0.25 | 0.003 | 1.2e+07 | 
10 | B10 | 0.16 | 0.0029 | 1.8e+07 | 
11 | B11 | 0.27 | 0.0024 | 8.6e+06 | 
12 | B12 | 0.066 | 0.0044 | 6.7e+07 | 
13 | B13 | 0.15 | 0.0055 | 3.6e+07 | 
14 | B14 | 0.45 | 0.0064 | 1.4e+07 | 
15 | B15 | 0.22 | 0.0039 | 1.7e+07 | 
16 | B16 | 0.15 | 0.0043 | 2.8e+07 | 
17 | B17 | 0.25 | 0.007 | 2.8e+07 | 
18 | B18 | 0.16 | 0.0044 | 2.7e+07 | 
19 | B19 | 0.2 | 0.0043 | 2.1e+07 | 
20 | B20 | 0.14 | 0.0031 | 2.2e+07 | 
21 | B21 | 0.26 |  |  | 
22 | B22 |  |  |  | 0.25
23 | B23 |  |  |  | 0.35
24 | B24 |  |  |  | 0.21
25 | B25 |  |  |  | 0.26
26 | B26 |  |  |  | 0.24

Row | Binder | Kd (human IL-1R-I) [nM] | koff (human IL-1R-I) [s⁻¹] | kon (human IL-1R-I) [M⁻¹ s⁻¹] | EC50 [1] [nM]
27 | B27 |  |  |  | 0.22
28 | B28 |  |  |  | 0.24
29 | B29 |  |  |  | 0.23
30 | B30 |  |  |  | 0.25
31 | B31 |  |  |  | 0.23
32 | B32 |  |  |  | 0.21
33 | B33 |  |  |  | 0.24
34 | B34 |  |  |  | 0.48
35 | B35 |  |  |  | 0.23
36 | B36 |  |  |  | 0.25
37 | B37 |  |  |  | 0.25
38 | B38 |  |  |  | 0.24
39 | B39 |  |  |  | 0.24
40 | B40 |  |  |  | 0.28
41 | B41 |  |  |  | 0.25
42 | B42 |  |  |  | 0.22
43 | B43 |  |  |  | 0.23
44 | B44 |  |  |  | 0.23
45 | B45 |  |  |  | 0.22
46 | B46 |  |  |  | 0.22
47 | B47 |  |  |  | 0.24
48 | B48 |  |  |  | 0.24
49 | B49 |  |  |  | 0.21
50 | B50 |  |  |  | 0.2
51 | B51 |  |  |  | 0.28
52 | B52 |  |  |  | 0.23
